PubChem BioAssay AID1508642 (National Center for Advancing Translational Sciences (NCATS), 2021)
Screen size: about 43,000 compounds; about 200 (0.47%) were called active. Inconclusive results (about 12%) are left out. Calls come from the whole dose curve; as a rule, active = well fitted cell-killing curve with a large enough effect; inconclusive = small, poorly fitted or top-dose-only effect, or effect the other way; inactive = flat fitted curve, though single readings scatter. The list shows a part of the results.
% is set by controls: 0 for no effect and ±100 for the full control effect; potency is the fitted concentration of half-maximal effect.

Experiment: Cell viability qHTS assay in S16 Pmp22-F2sN cells; note: nearly all actives have a fitted effect of over 65% in size
Conditions: S16 Pmp22-F2sN Schwann cells viability, CellTiter-Glo, 24 h; series mostly up to 57.5 µM; activity change, negative = cytotoxicity: at the top concentration
Summary of the method: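 Used to flag compounds lowering reporter output through toxicity, this quantitative HTS measures ATP-based CellTiter-Glo luminescence in S16 Pmp22-F2sN Schwann cells after 24 h compound exposure at 37C.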
In the case of CCc1ccc(NC(=O)Cn2cnc3nc4c(cc3c2=O)CCCC4)cc1, the “activity change, negative = cytotoxicity” value is reported as inactive: -20.4%.
For Cc1ccc(C(=O)N2CC(=O)Nc3ccc(Br)cc3C2c2ccc(F)cc2)cc1C (stereo not given), the “activity change, negative = cytotoxicity” value was inactive: -24.9%.
For COc1ccccc1CNC(=O)C1CCN(c2ncnc3c2nc2n3CCCCC2)CC1, the “activity change, negative = cytotoxicity” value was inactive: -0.135%.
In the case of CC(C)CCNC(=O)c1c[nH]c2ccc(S(=O)(=O)Nc3cccc(C(F)(F)F)c3)cc2c1=O, the “activity change, negative = cytotoxicity” value is reported as inactive: -1.92%.
For COc1ccc(C(CNC(=O)c2oc3ccccc3c2C)N2CCCCC2)cc1 (stereo not given), the “activity change, negative = cytotoxicity” value was inactive: 3.13%.
In the case of CCc1ccc(-n2c3nc(=O)[nH]c(=O)c-3cc3c(C)nn(-c4ccccc4)c32)cc1, the “activity change, negative = cytotoxicity” value is reported as inactive: 2.58%.
For CC(C)(C)OC(=O)N1CCC(c2nnc(SCc3ccccc3Cl)o2)CC1, the “activity change, negative = cytotoxicity” value was inactive: 12.6%.
With CS(=O)(=O)c1ncc(N(Cc2ccco2)Cc2cccs2)c(C(=O)Nc2ccccc2F)n1 the “activity change, negative = cytotoxicity” value was inactive: 8.44%.
With COc1ccc(Cl)cc1NC(=O)C(C)n1c(=O)cc(C(F)(F)F)c2c(C)nn(C)c21 (stereo not given) the “activity change, negative = cytotoxicity” value was inactive: -14.2%.
In the case of CCc1c(C)sc2c1CCN(C(=O)Nc1ccccc1Cl)C2c1ccc(OC)cc1 (stereo not given), the “activity change, negative = cytotoxicity” value is reported as inactive: 7.2%.
With Cc1ccc(-c2noc(-c3ccc(NC4CCCC4)c([N+](=O)[O-])c3)n2)cc1 the “activity change, negative = cytotoxicity” value was inactive: -0.161%.
In the case of COc1ccc(N2C(=O)NC(NS(=O)(=O)c3ccc(NC(C)=O)cc3)(C(F)(F)F)C2=O)cc1 (stereo not given), the “activity change, negative = cytotoxicity” value is reported as inactive: 5.41%.
In the case of CCOc1ccc(CNC(=O)CCCn2nc(C)c3c(C)n(-c4ccc(C)cc4)nc3c2=O)cc1, the “activity change, negative = cytotoxicity” value is reported as inactive: -6.02%.
In the case of Cc1ccc(Cn2ccn(Cc3ccc(C)cc3)c(=O)c2=O)cc1, the “activity change, negative = cytotoxicity” value is reported as inactive: -5.07%.
With CC1CCc2onc(C(=O)N3CCN(c4ccc(Cl)cc4)CC3)c2C1 (stereo not given) the “activity change, negative = cytotoxicity” value was inactive: -9.69%.
In the case of CCCCNC(=O)Cn1c(=O)cc(C)c2c(C)nn(-c3cccc(Cl)c3C)c21, the “activity change, negative = cytotoxicity” value is reported as inactive: -17%.
With Cc1noc2ncnc(N3CCCC(C(=O)Nc4cc(F)ccc4F)C3)c12 (stereo not given) the “activity change, negative = cytotoxicity” value was inactive: -10.7%.
With CCOC(=O)c1c(C)c(C(=O)NCc2ccc(Cl)cc2)c(C)n1C the “activity change, negative = cytotoxicity” value was inactive: 0.572%.
For COc1ccccc1NC(=O)C1=C(C)Nc2nc(-c3ccco3)nn2C1c1cccc(C)c1 (stereo not given), the “activity change, negative = cytotoxicity” value was inactive: 10.8%.
For CCc1ccc(-n2c(=O)c3c(C)c(C(=O)N(C)C)sc3n(CC(=O)Nc3cc(Cl)ccc3C)c2=O)cc1, the “activity change, negative = cytotoxicity” value was inactive: -6.37%.
With CCC(=O)Nc1ccc(C)cc1-c1nc2ccccc2n(CC(=O)c2ccc(C)cc2)c1=O the “activity change, negative = cytotoxicity” value was inactive: 3.18%.
In the case of CC(C)(C)OC(=O)N1CCC(c2c(C(=O)NCc3ccco3)cnn2-c2ccc(F)cc2F)CC1, the “activity change, negative = cytotoxicity” value is reported as inactive: -2.94%.
In the case of O=C(NCCS(=O)(=O)N1CCN(c2ccc(F)cc2)CC1)c1ccccc1Br, the “activity change, negative = cytotoxicity” value is reported as inactive: -9.89%.
For CCOc1ccc(CC(=O)NCCc2sc(-c3cccc(F)c3)nc2C)cc1, the “activity change, negative = cytotoxicity” value was inactive: 7.7%.
In the case of COc1ccc(NC(=O)c2cc(=O)c3cc(C)cc(C)c3o2)cc1, the “activity change, negative = cytotoxicity” value is reported as inactive: -25.2%.
In the case of Cc1nc2c(-c3ccccc3)c(C)[nH]n2c(=O)c1Cc1ccc(Br)cc1, the Potency is reported as active: 10 µM.
For CCOc1cccc2sc(NC(=O)c3ccc(S(=O)(=O)N4CCCCC4)cc3)nc12, the “activity change, negative = cytotoxicity” value was inactive: 0.0794%.
For CCOC(=O)c1c(-c2ccc(Br)cc2)csc1NC(=O)c1ccc(C(C)(C)C)cc1, the “activity change, negative = cytotoxicity” value was inactive: 4.01%.
In the case of Cc1ccc(CNC(=O)c2cc(=O)c3cc(C)c(C)cc3o2)cc1, the “activity change, negative = cytotoxicity” value is reported as inactive: 2.2%.
For COc1ccc(CNC(=O)C2CCCN(C(=O)c3cnn(-c4ccc(F)cc4)c3-n3cccc3)C2)cc1 (stereo not given), the “activity change, negative = cytotoxicity” value was inactive: 0.778%.
In the case of CC1CCN(S(=O)(=O)c2ccc3c(ccc(=O)n3CC(=O)NCc3ccccc3)c2)CC1, the “activity change, negative = cytotoxicity” value is reported as inactive: -8.53%.
For CCCS(=O)(=O)c1nc(S(=O)(=O)c2ccc(C)cc2)c(NCC(C)C)s1, the “activity change, negative = cytotoxicity” value was inactive: -1.46%.
In the case of Cc1ccc(CCNC(=O)c2oc(=O)c3ccccc3c2-c2ccc(C)cc2)cc1, the “activity change, negative = cytotoxicity” value is reported as inactive: 26.5%.
With CC(CNc1nc2ccccc2c2nc(-c3ccccc3)nn12)c1ccccc1 (stereo not given) the “activity change, negative = cytotoxicity” value was inactive: 24.7%.
In the case of COc1ccc(NC(=O)c2cc3c(=O)n(C)c4cc(Cl)ccc4c3s2)cc1Cl, the “activity change, negative = cytotoxicity” value is reported as inactive: 1.48%.
In the case of CC(=O)Nc1cccc(NC(=O)CSc2cn(CC(=O)N3CCCC3)c3ccccc23)c1, the “activity change, negative = cytotoxicity” value is reported as inactive: 10.3%.
For CCN1CCN(Cc2nc3cc(NC(=O)c4cccc([N+](=O)[O-])c4)ccc3n2CC)CC1, the “activity change, negative = cytotoxicity” value was inactive: -2.18%.
In the case of CCc1ccc(NC(=O)Cn2c(C(=O)OC)cc3oc(C)cc32)cc1, the “activity change, negative = cytotoxicity” value is reported as inactive: -6.48%.
In the case of Cc1ccc(C)c(NC(=O)CSc2nnc(NC(=O)Nc3ccccc3)s2)c1, the “activity change, negative = cytotoxicity” value is reported as inactive: 5.17%.
In the case of CCCCCCC(=O)Nc1cc2nc3c(nc2cc1C)c(=O)n(C)c(=O)n3C, the “activity change, negative = cytotoxicity” value is reported as inactive: -0.446%.
With COc1ccc(NC(=O)CN2CCN(C3CCCCC3)C(=O)C2=O)cc1 the “activity change, negative = cytotoxicity” value was inactive: 21.9%.
In the case of CCc1ccc(C2CC(=O)c3c([nH]c(C(=O)OC4CCCCCC4)c3C)C2)cc1 (stereo not given), the “activity change, negative = cytotoxicity” value is reported as inactive: 4.9%.
With Cc1ccccc1OCC(=O)Nc1ccc2[nH]c(=O)sc2c1 the “activity change, negative = cytotoxicity” value was inactive: -6.4%.
For CCOC(=O)N1CCC(NC(=O)c2ccc3c(c2)N(Cc2ccc(F)cc2)C(=O)c2ccccc2S3=O)CC1 (stereo not given), the “activity change, negative = cytotoxicity” value was inactive: -11.2%.
With COc1ccc(CCNC(=O)c2nc(SCc3ccc(F)cc3)ncc2Cl)cc1OC the “activity change, negative = cytotoxicity” value was inactive: -1.73%.
With CCOC(=O)C1CCN(S(=O)(=O)c2cc(-c3cc(C)no3)ccc2OC)CC1 the “activity change, negative = cytotoxicity” value was inactive: -3.62%.
In the case of COc1ccc(C)cc1Nc1c2c(nc3ccccc13)CCC2, the “activity change, negative = cytotoxicity” value is reported as inactive: -14.9%.
In the case of O=C(COc1ccccc1)Nc1nnc2n1CCS2, the “activity change, negative = cytotoxicity” value is reported as inactive: 7.04%.
With CCOC(=O)c1c(C)[nH]c(C)c1S(=O)(=O)NCC(=O)Nc1cc(Cl)ccc1OC the “activity change, negative = cytotoxicity” value was inactive: 21.9%.
With CC(=O)c1ccc(NC(=O)COc2ccccc2-c2nc(C(C)C)no2)cc1 the “activity change, negative = cytotoxicity” value was inactive: 2.09%.
With COc1cc(OC)cc(-c2nc3nc(C)c(CCC(=O)Nc4ccccc4)c(C)n3n2)c1 the “activity change, negative = cytotoxicity” value was inactive: 22.9%.
For Cc1ccc(NC(=O)C(Cc2ccccc2)NS(=O)(=O)c2ccc3c(c2)oc(=O)n3C)cc1C (stereo not given), the “activity change, negative = cytotoxicity” value was inactive: 0.896%.
With CC(C)(C)C(=O)Cn1c(=O)n(CCCCCC(=O)NCc2ccccc2Cl)c(=O)c2sccc21 the “activity change, negative = cytotoxicity” value was inactive: -16.4%.
In the case of COCCn1c(SCC(=O)c2c[nH]c3ccccc23)nc2cc(C(=O)NCC(C)C)ccc2c1=O, the “activity change, negative = cytotoxicity” value is reported as inactive: 1.15%.
In the case of Cc1ccc(O)c(NC(=O)c2nc3nc(C)cc(C(F)F)n3n2)c1, the “activity change, negative = cytotoxicity” value is reported as inactive: 17.4%.
With O=c1oc2ccc3ccccc3c2cc1-c1nnc(Nc2cc(C(F)(F)F)ccc2Cl)s1 the “activity change, negative = cytotoxicity” value was inactive: -21.2%.
In the case of Cc1ccc(N(CC(=O)Nc2ccc(OC(F)(F)F)cc2)S(=O)(=O)c2c(C)noc2C)cc1, the “activity change, negative = cytotoxicity” value is reported as inactive: 10%.
In the case of Cc1[nH]c2c(C)cccc2c1CCNC(=O)c1cc2ccccc2oc1=O, the “activity change, negative = cytotoxicity” value is reported as inactive: 5.81%.
With CCc1cccc(C)c1Nc1c(-c2cccc(O)c2)nc2sccn12 the “activity change, negative = cytotoxicity” value was inactive: 8.1%.
In the case of O=S(=O)(c1cccc(Cl)c1)c1nnn2c1nc(NC1CCCC1)c1sccc12, the “activity change, negative = cytotoxicity” value is reported as inactive: -0.771%.
